Screen size: about 350,000 compounds; about 260 (0.074%) were called active. The inconclusive results got no clear call from the source; some entries with a clear call stand among them for comparison. Calls follow the shape of the dose curve; as a rule, active = well fitted inhibition curve with a large enough effect; inconclusive = small, poorly fitted or top-dose-only effect; inactive = no such curve, though single readings can be large or run the other way. Potencies beside an inconclusive call are fits to weak or partial responses and may not hold up.
Target: Ferritin light chain (Equus caballus) (UniProt P02791)
Sequence of UniProt P02791 (P02791 whole entry, looked up): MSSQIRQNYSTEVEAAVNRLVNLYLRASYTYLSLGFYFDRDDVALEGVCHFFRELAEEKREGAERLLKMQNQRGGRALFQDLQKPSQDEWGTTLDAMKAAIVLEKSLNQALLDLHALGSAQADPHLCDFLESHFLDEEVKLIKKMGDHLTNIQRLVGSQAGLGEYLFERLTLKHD
Assay: qHTS Assay for Identification of Novel General Anesthetics; also: nearly all actives have a fitted effect of over 20% in size
Settings: apoferritin/1-aminoanthracene competitive binding, fluorescence; activity change, negative = displacement: at 77.5 µM (top of the series)
Procedure, shortened: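 In PBS, apoferritin at 10 uM is loaded with 1-AMA from a 50% saturated solution. After 10 min of compound exposure at ambient temperature, reduced 535 nm fluorescence indicates probe displacement.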
% is scaled to controls: 0 for no effect and ±100 for the full control effect; potency is read from the fitted curve at half-maximal effect; tags tell the direction and shape of the fitted curve.

Activity change, negative = displacement, inactive:
CCOc1ccc(CCNC(=O)c2cc3c(=O)oc4ccc(C)cc4c3s2)cc1OCC -2.21%
Cc1ccc(C(=O)N2CCN(c3ccc(F)cc3)CC2)cc1S(=O)(=O)N1CCCCC1 -1.88%
Cc1c(NC(=O)c2ccc(C(=O)Nc3c(C)n(C)n(-c4ccccc4)c3=O)cc2)c(=O)n(-c2ccccc2)n1C 1.28%
Cc1cccc(NC(=S)N/N=C2\CC(C)(C)Oc3ccc(O)cc32)c1 75.7%
CCOC(=O)CSc1nc(-c2ccc(C)cc2C)cc(-c2ccccc2)c1C#N 5.52%
CCc1cccc(C)c1NC(=O)C1CN(S(=O)(=O)c2ccccc2)CCN1S(=O)(=O)c1ccccc1 (stereo unspecified) -0.598%
Nc1c(C(=O)NCc2ccccc2)c2nc3ccccc3nc2n1-c1ccc2c(c1)OCO2 0.116%
Cc1ccc(S(=O)(=O)Nc2cccnc2Oc2ccc(Cl)cc2)cc1 -5.33%
C=C(C(=O)c1ccccc1)C(c1ccccc1)C(C)C(=O)c1ccccc1 (stereo unspecified) 1.31%
Cc1nc(CN(C)C(=O)c2cc(COc3ccc4ncccc4c3)on2)cs1 -11.8%

Potency, inconclusive:
O=C(Nc1ccc(Cl)c(Cl)c1)N1CCSC1c1ccco1 (stereo unspecified) 28.2 µM [inhibitor, partial curve]
N#C/C(=C\C1CC=CCC1)c1nc2ccccc2[nH]1 (stereo unspecified) 39.8 µM [inhibitor, partial curve]
O/N=C/c1ccccc1OCc1ccc(Cl)cc1 50.1 µM [inhibitor, single point]
Cc1ccc(C(=O)/C=C/c2ccccc2[N+](=O)[O-])cc1 35.5 µM [inhibitor, partial curve]
Cc1ccc(CC(CC(=O)Nc2cccc(C(F)(F)F)c2)C(=O)O)cc1 (stereo unspecified) 31.6 µM [inhibitor, single point]
COc1cc(NC(=S)N2CCCC(CO)C2)cc(OC)c1 (stereo unspecified) 31.6 µM [inhibitor, partial curve]
Cc1noc(C)c1CSc1ccc(Br)cc1 28.2 µM [inhibitor, partial curve]
Cc1cccc(N2CCN(S(=O)(=O)c3ccc4[nH]c(=O)c(=O)[nH]c4c3)CC2C)c1 (stereo unspecified) 31.6 µM [inhibitor, partial curve]
COc1ccc(CCNc2ccc(N3C(=O)CC(C)C3=O)cc2[N+](=O)[O-])cc1OC (stereo unspecified) 25.1 µM [inhibitor, partial curve]
Cc1ccccc1C(C(=O)NCc1ccccc1)N(Cc1ccco1)C(=O)c1ccccn1 (stereo unspecified) 39.8 µM [inhibitor, partial curve]
CN(C)CCCN(C(=O)c1ccc(S(=O)(=O)N2CCCCCC2)cc1)c1nc2ccc(F)cc2s1 15.8 µM [inhibitor, partial curve]
